In PubChem BioAssay AID1030 (National Center for Advancing Translational Sciences (NCATS), 2008):
About 16,000 (7.3%) of roughly 220,000 compounds were called active. The shares of active, inactive and inconclusive entries below differ from those in the screen. Calls come from the whole dose curve; as a rule, active = well fitted inhibition curve with a large enough effect (not every such curve was filed as active); inconclusive = small, poorly fitted or top-dose-only effect, or another doubt; inactive = no such curve, though single readings can be large or run the other way. Potencies beside an inconclusive call are fits to weak or partial responses and may not hold up.

The compounds below were run against Aldehyde dehydrogenase 1A1 (Homo sapiens) (UniProt P00352) (assay: qHTS Assay for Inhibitors of Aldehyde Dehydrogenase 1 (ALDH1A1)). Conditions: Purified ALDH1A1, NADH fluorescence, propionaldehyde substrate; series mostly up to 75.3 µM; activity, negative = inhibition: at the top concentration.
UniProt P00352, sequence (P00352 whole entry, looked up): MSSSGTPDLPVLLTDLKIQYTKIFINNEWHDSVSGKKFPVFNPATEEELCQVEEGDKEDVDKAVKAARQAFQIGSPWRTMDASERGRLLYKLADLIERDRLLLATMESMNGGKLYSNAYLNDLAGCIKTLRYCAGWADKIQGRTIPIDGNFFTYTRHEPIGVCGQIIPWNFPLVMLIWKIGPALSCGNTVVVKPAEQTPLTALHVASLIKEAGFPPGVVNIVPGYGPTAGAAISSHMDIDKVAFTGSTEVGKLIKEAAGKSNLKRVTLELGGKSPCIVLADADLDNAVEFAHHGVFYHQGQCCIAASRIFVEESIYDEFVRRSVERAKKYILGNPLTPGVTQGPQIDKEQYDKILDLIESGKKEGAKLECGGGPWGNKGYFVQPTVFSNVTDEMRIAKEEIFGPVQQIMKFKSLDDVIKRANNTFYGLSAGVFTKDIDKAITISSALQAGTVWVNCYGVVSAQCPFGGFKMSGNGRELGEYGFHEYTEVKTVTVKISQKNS
Potency is the fitted concentration of half-maximal effect; tags give direction and shape of the fitted curve.
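Throughout, for activity, negative = inhibition: plate controls were no enzyme wells and a reference inhibitor.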

Potency, inactive:
CCOC(=O)CN1C(=O)N[C@@H](c2ccc(Br)cc2)C(C(C)=O)=C1C

Potency, inconclusive:
O=C(CN1c2cccc3cccc(c23)S1(=O)=O)Nc1ccc(S(=O)(=O)N2CCOCC2)cc1 20 µM [inhibitor, partial curve]
Cn1c(=O)c2cc(S(=O)(=O)NC(Cc3ccccc3)C(=O)NCc3ccco3)ccc2n(C)c1=O (centres undefined) 17.8 µM [inhibitor, partial curve, poor fit]
CC(C(=O)NCC1CCCO1)N(C(=O)c1snc(C(N)=O)c1N)c1ccccc1 (centres undefined) 35.5 µM [inhibitor, single point]
Cc1ccc(/C=N/NC(=O)CSc2nc3ccccc3n2Cc2ccc(Cl)cc2)o1 39.8 µM [inhibitor, single point]
CCN(CC(=O)Nc1ccc2c(c1)OCCO2)C(=O)/C=C/c1ccccc1 12.6 µM [inhibitor, partial curve]
Cc1cc(NC(=O)C2CC2)n(-c2nc3ccccc3s2)n1 37.7 µM [inhibitor, single point]
CCOC(=O)c1sc2nc(NC(=O)COc3ccccc3)sc2c1C 28.2 µM [inhibitor, partial curve]
CC(OC(=O)c1cc(=O)[nH]c2ccccc12)c1ccccc1 (centres undefined) 25.1 µM [inhibitor, partial curve]
CCSc1oc(-c2ccco2)nc1S(=O)(=O)c1ccccc1 39.8 µM [inhibitor, single point]
Cc1c(NC(=S)NC(=O)c2ccc(-c3ccc(Cl)cc3)o2)cccc1C(=O)O 39.8 µM [inhibitor, single point]
COc1ccccc1-c1nn2c(C3COc4ccccc4O3)nnc2s1 (centres undefined) 12.6 µM [inhibitor, partial curve]
O=C1NC(=O)/C(=C\c2ccc(OCc3cccc([N+](=O)[O-])c3)cc2)N1 44.7 µM [inhibitor, single point]
O=S(=O)(NC1CCCCC1Sc1ncccn1)c1ccccc1 (centres undefined) 39.8 µM [inhibitor, single point]
CCCCn1cnc2sc(-c3ccccc3)cc2c1=O 22.4 µM [inhibitor, partial curve]
COc1ccc(-c2nc3ncccn3c2Br)cc1 25.1 µM [inhibitor, partial curve]
CC(=O)N(CCc1ccccc1C)Cc1cc2cc3c(cc2[nH]c1=O)OCO3 15.8 µM [inhibitor, partial curve]
CCC(=O)c1ccccc1OCCN1CCN(Cc2ccccc2)CC1 25.1 µM [inhibitor, single point]
O=C(CC(c1ccco1)S(=O)(=O)c1ccccc1)c1ccccc1 (centres undefined) 39.8 µM [inhibitor, single point]
COc1cc(Br)cc2cc(C(=O)N3CCCCC3C)c(=O)oc12 (centres undefined) 44.7 µM [inhibitor, single point]
COc1ccc(N(CC(=O)Nc2cc(C)on2)S(=O)(=O)c2cc(C)ccc2C)cc1 28.2 µM [inhibitor, single point]
CCCCn1c(-c2csc(CC)c2)n[nH]c1=S 6.31 µM [inhibitor, partial curve]
CN(C)c1ncc2nc(-c3ccccc3)c(=O)n(-c3ccccc3)c2n1 28.2 µM [inhibitor, single point]
COC(=O)c1ccccc1NC(=O)N1c2ccccc2CC1C (centres undefined) 31.6 µM [inhibitor, single point]
Cc1ccc(NC(=O)c2cc(C)n(-c3cccc(C)c3)c2C)cc1 39.8 µM [inhibitor, single point]
CCOC(=O)C1=C(C)NC2=C(C(=O)C(C(=O)OCC)C(c3ccccc3OC)C2)C1c1ccccn1 (centres undefined) 37.7 µM [inhibitor, single point]
COc1cccc(NC(=S)N(Cc2ccc(C)cc2)Cc2ccccn2)c1 22.4 µM [inhibitor, partial curve]
CCC(C)(C)NC(=O)c1cc([N+](=O)[O-])ccc1N1CCCCC1 44.7 µM [inhibitor, single point]
O=c1oc(-c2cccc(S(=O)(=O)N3CCOCC3)c2)nc2ccccc12 31.6 µM [inhibitor, single point]
Cc1cccc(N2CCN(C(=O)C3CCN(S(=O)(=O)N4CCOCC4)CC3)CC2C)c1 (centres undefined) 28.2 µM [inhibitor, single point]
COCc1nnc(NC(=O)c2ccccc2[N+](=O)[O-])s1 44.7 µM [inhibitor, single point]
COc1ccc(C(=O)NC(=S)NNC(=O)c2ccc(NC(C)=O)cc2)cc1Br 39.8 µM [inhibitor, single point]
COC(=O)c1ccccc1NC(=S)NC(=O)c1ccc2ccccc2c1 28.2 µM [inhibitor, partial curve]
CCOC(=O)C(=NCCCN(C)C)NNc1ccc(Br)cc1 39.8 µM [inhibitor, single point]
Cc1ccc(-c2ccc(C(=O)Nc3ccccc3)o2)c2ccccc12 11.2 µM [inhibitor, partial curve]
COc1ccccc1NC(=O)COC(=O)/C=C/c1ccccc1[N+](=O)[O-] 44.7 µM [inhibitor, single point]
C=CCN(CC=C)Cc1c(C)[nH]c2ccc(C(=O)OCC)cc2c1=O 15 µM [inhibitor, partial curve]
O=C(OC1CCOC1=O)c1cc(-c2ccccc2)nc2ccccc12 (centres undefined) 39.8 µM [inhibitor, single point]
COc1cccc(C(=O)N2CCN(c3ncccn3)CC2)c1 37.7 µM [inhibitor, single point]
COc1ccccc1C(=O)N/N=C/c1ccc(Cl)s1 39.8 µM [inhibitor, single point]

Potency, active:
CCOc1ccccc1NC(=O)C(OC(=O)c1ccc(O)cc1)c1ccccc1 (centres undefined) 7.94 µM
O=c1cc(O)nc(-c2ccc(Cl)cc2)s1 15.8 µM
COc1cc(OC)cc(C(=O)N[C@H](C(=O)OCC(=O)Nc2sccc2C#N)C(C)C)c1 28.2 µM
Fc1cccc(Cc2noc(CN3CCCN(C4Cc5ccccc5C4)CC3)n2)c1 3.55 µM
Cc1cc(C)cc(NS(=O)(=O)c2ccc3[nH]cc(C(=O)N4CCc5ccccc54)c(=O)c3c2)c1 10 µM
Cc1ccc(C(=O)Nc2sc(C)c(C)c2C(=O)c2ccccc2)cc1 10 µM
COCC(C)NC(C(=O)Nc1cccc(C(C)=O)c1)c1ccccc1 (centres undefined) 14.1 µM
COc1cc(C(=O)NC(=S)Nc2ccccc2[N+](=O)[O-])cc(OC)c1OC 17.8 µM
O=C(CC(SCCO)c1ccc(F)cc1)c1ccco1 (centres undefined) 28.2 µM
COCCN=C1Sc2nc3ccc(C)cc3cc2CN1Cc1ccco1 25.1 µM
O=C(COc1ccc(Cl)cc1)N1CCN(C(=O)c2cccc(F)c2)CC1 14.1 µM
O=C(NCc1cccnc1)/C(=C/c1ccc(-c2cccc(Cl)c2)o1)S(=O)(=O)c1ccccc1 12.6 µM

activity, negative = inhibition, inactive:
CCOC(=O)C1CCN(C(=S)Nc2ccc(CC)cc2)CC1 -8.56%
Cc1nnc(SCC(=O)Nc2ccc3c(c2)OCCO3)s1 -2.66%
C=C(C[C@]1(C(=O)OC)CC2(CC=C(C)C)C(=O)C(C(=O)CC(C)C)=C(O)C(CC=C(C)C)(C1)C2=O)C(=O)OC (some centres undefined) 4.51%
CCc1ccc(NC(=O)C(=O)N/N=C(\C)CC(=O)NCCOC)cc1 -6.85%
COc1ccc(NC(=O)Nc2cccc(F)c2)c(OC)c1 0.114%
N#C[C@H](C(=O)O)C(c1c(Cl)cccc1Cl)[C@H](C#N)C(=O)O -6.35% [at 13.5 µM]
COC(=O)[C@@]1(Cc2ccc(OC)cc2)[C@H]2c3cc(C(=O)N(C)C)n(Cc4ccccc4)c3C[C@H]2CN1C(=O)c1ccccc1 -0.645%
Cc1cc(C)cc(OCC(O)CN2C(=O)NC(C)(C)C2=O)c1 (centres undefined) 1.72%
Cc1cc(N(CC(=O)NC2CC2)S(C)(=O)=O)ccc1Br -0.71%
Cc1noc(C)c1C(=O)Nc1ccc(F)cc1 6.93%
COc1cc(-c2cc(OC)c3c(C)oc(C)c3c(=O)c2)ccc1O -9.53%
CC(C)N1CCN(Cc2ccoc2)CC1CCO (centres undefined) -0.912%
COc1cc(C)ccc1OCCOc1ccccc1Cl 6.25%
COc1ccc(-n2c(=O)c(-c3cccc(Cl)c3)nc3cncnc32)cc1 16.6%
O=C1CC(c2c(F)cccc2Cl)C(n2cncn2)C(O)=C1C1NCCc2ccccc21 (centres undefined) 1.49%
CCCCc1ccc(NC(=O)C(=O)NCCN2CCN(Cc3ccc([N+](=O)[O-])cc3)CC2)cc1 -1.26%
Cc1cc(C)nc(SCc2ccc(C(=O)N/N=C/c3cccc(O)c3O)cc2)n1 0.396%
COCCNC(=O)c1ccccc1NC(=O)c1ccccc1N(C)S(=O)(=O)c1ccccc1 1.28%
O=C(COC(=O)c1ccc(CO)cc1)Nc1ccc(OC(F)F)cc1 5.61%
O=C(COC(=O)CCC(=O)c1cccs1)NCc1ccccc1 -3.19%
O=c1onc2n1-c1cc(Br)ccc1OC2 -4.54%
O=C(Nc1ccc(Cl)cc1)OCCn1nnnc1C(c1ccccc1)N1CCOCC1 (centres undefined) -1.32%
